# Assay results taken from PubChem BioAssay AID662 (National Center for Advancing Translational Sciences (NCATS), 2007).
# The whole screen tested about 71,000 compounds, of which about 1,800 (2.5%) were called active. Inconclusive results, whose numbers are uncertain, are shown with a selection of clear calls. Calls follow the shape of the dose curve; as a rule, active = well fitted activation curve with a large enough effect in the signal ratio, with a control signal flat (not every such curve was filed as active); inconclusive = small, poorly fitted or top-dose-only effect, or effect the other way, or a change in a side signal; inactive = flat fitted curve, though single readings scatter; the % refers to the signal ratio. Where the call is inconclusive, the potency comes from a doubtful curve fit.
# Assay: Cell signaling CRE-BLA (Fsk stim); as to activity change, negative = inhibition: % of control where 0% means no effect
# Details: CHO CRE-bla reporter (cAMP response element driving beta-lactamase), forskolin EC10, beta-lactamase ratio; activity change, negative = inhibition: at 38.2 µM (top of the series) unless noted
# Method in brief: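 CRE-bla CHO cells stimulated with EC10 NKH 477 (water-soluble forskolin) and compound titrations, 3 h at 37C; beta-lactamase read with CCF4 after 2 h at room temperature. Activity from 460/530 nm emission ratio, AC50 values for positive or negative modulation.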
# Potency is read from the fitted curve at half-maximal effect; tags tell the direction and shape of the fitted curve.
Structure (SMILES),Potency,"activity change, negative = inhibition"
C[C@@H]1C[C@@H]([C@H](O)CC2CC(=O)NC(=O)C2)C(=O)[C@@H](C)C1,"inconclusive: 0.0316 µM [rising, partial curve]",inconclusive: -27.6%
O=C(O)CBr,–,inactive: -10.7%
Cc1cc(Br)ccc1N1C(=O)CC(=O)NC1=O,"inconclusive: 0.631 µM [falling, partial curve]",–
c1cncc([C@@H]2CCCCN2)c1,–,inconclusive: -18.1%
OC[C@H]1CCCN2CCCC[C@@H]12,–,inactive: -3.42%
CCOC(=O)c1c(C)n(COCCO)c2ccc(O)cc12,–,inconclusive: 18.6%
C(=NC1CCCCC1)=NC1CCCCC1,–,inactive: -2.9%
O=c1[nH]oc2c1CCNC2,–,inactive
Cc1cc(OC(=O)CCNC(=O)OC(C)(C)C)c2c3c(c(=O)oc2c1)CCC3,–,inactive: 7.96%
COc1cccc(N2CCN(Cc3cccc(Cl)c3)CC2)c1,–,inactive: 1.38%
COP(=O)(OC)O/C(=C\Cl)c1cc(Cl)c(Cl)cc1Cl,–,inactive: 0.669%
O=C(Nc1cccc(OC(=O)N2CCCCC2)c1)N1CCCCC1,"inconclusive: 0.0794 µM [falling, single point]",–
O=P1(NCc2ccco2)COc2ccccc2OC1,–,inconclusive: 2.49%
O=c1c2ccccc2nc(-c2ccco2)n1-c1ccc(Br)cn1,–,inconclusive: -0.862%
CC[C@H](CO)NC(=O)[C@H]1C=C2c3cccc4[nH]cc(c34)C[C@H]2N(C)C1,–,inconclusive: -20.5%
Cc1ccccc1-n1c(O)c(C=NCCN2CCOCC2)c(=O)[nH]c1=O,–,inactive: -1.13%
O=C(Cc1ccc(Cl)c(Cl)c1)N1CCCC[C@H]1CN1CCCC1,–,inactive
Oc1ccc2[nH]cc(CCCCN3CC=C(c4ccccc4)CC3)c2c1,"inconclusive: 20 µM [falling, partial curve, poor fit]",–
Nc1ccccc1O.O.O=C(O)[C@H]1[O][Sb][O][C@H]1C(=O)O,–,inactive: 8.76% [at 7.6 µM]
O=c1cc(C2CCNCC2)[nH][nH]1,–,inconclusive: 14.7%
CCC(=Nc1ccc2c(c1)CCC2)c1c(O)n(C)c(=O)n(C)c1=O,–,inactive: 35.8%
Cn1c(=O)c2[nH]cnc2n(C)c1=O.[CH2-][C@H](Cc1cccc2cc(C(=O)O)c(=O)oc12)OC.[Hg].[OH-],–,inactive: -5.76% [at 7.6 µM]

Structure (SMILES),Potency,"activity change, negative = inhibition"
CC(C)(C)[C@@]1(O)C[C@@H]2OC(=O)C[C@@]23C(=O)O[C@H]2OC(=O)[C@@H](O)[C@]231,–,inconclusive: -14.7%
ClCC(Br)CBr (stereo not given),–,inactive: -1.54%
CCC(=Nc1ccc2c(c1)CCC2)c1c(O)n(C2CCCCC2)c(=O)[nH]c1=O,–,inactive: -7.66%
Ic1ccccc1CN[C@@H]1C2CCN(CC2)[C@H]1C(c1ccccc1)c1ccccc1,–,inactive: -4.26%
COc1cc2c(cc1OC)-c1c(O)c(OC)cc3c1[C@@H](C2)N(C)CC3,"inconclusive: 31.6 µM [rising, single point]",–
CNC(C(=O)c1ccccc1)C(OC)c1ccccc1 (stereo not given),–,inactive: 3.84%
Oc1c(Cl)c(Cl)cc(Cl)c1Cl,–,inconclusive: -8.02%
Clc1ccc(C(c2ccc(Cl)cc2)C(Cl)Cl)cc1,–,inconclusive: 0.641% [cytotoxic]
CN(C=O)CP(=O)(O)CN(C)C=O,active: 15.8 µM,–
COc1ccc(CN2C(=O)CC(=O)NC2=O)cc1,–,inconclusive: -20.7%
CC(C)c1ccc(C(O)(C(=O)O)c2ccc(C(C)C)cc2)cc1,–,inactive: 1.36% [at 7.6 µM]
Cc1cc([P+](=O)O)c(C)n1-c1ccc(Br)cc1,–,inconclusive: -17.6%
COC(=NC1CCCC1)C(O)c1c[nH]c2ccccc12 (stereo not given),"inconclusive: 0.00316 µM [rising, full curve, poor fit]",–
O=C(C[C@H](c1ccccc1)c1c(O)c2ccccc2oc1=O)c1ccccc1,–,inactive: 6.5% [at 7.6 µM]
CC(C)(O)[C@H]1[C@H]2OC(=O)[C@@H]1[C@]1(O)C[C@H]3O[C@]34C(=O)O[C@H]2[C@]14C,–,inconclusive: -3.72%
O[C@@H]1[C@H](O)[C@H]2[C@@H](O)CCN2C[C@@H]1O,–,inconclusive: -21.2%
NCC(CC(=O)O)c1ccc(Cl)cc1 (stereo not given),–,inactive: -3.17%
CCn1c(=O)cc(OCC(=O)N2CCC3(CC2)OCCO3)c2ccccc21,–,inactive: -12.4%
CCC(=NCc1ccco1)c1c(O)n(C2CCCCC2)c(=O)[nH]c1=O,"inconclusive: 12.6 µM [rising, partial curve]",–
OC(COCc1ccc(Cl)cc1)CN1CC=C(c2ccccc2)CC1 (stereo not given),"inconclusive: 10 µM [falling, single point]",–
ClC(Cl)=C(c1ccc(Cl)cc1)c1ccc(Cl)cc1,"inconclusive: 12.6 µM [rising, partial curve]",inconclusive: 22.6%
